Assay results reported in patent US20260216360A1, “TYROSINASE-MEDIATED PROTEIN SITE-SPECIFIC CONJUGATION AND USE THEREOF” (SHANGHAI SHENGDI PHARMACEUTICAL CO., LTD., priority 2023, published 2026).

Test system: VsTYR core
Assay: Tyrosinase-mediated one-pot conjugation of antibodies, VsTYR core (RP-HPLC, LC-MS DAR)
Format: biochemical, Verrucomicrobium spinosum
Procedure: After an additional tyrosine is introduced into the antibody by mutation, tyrosinase can recognize it and oxidize it to quinone. The small molecule in the reaction system rapidly undergoes a 4+2 Diels Alder reaction with the quinone through a linker, thereby forming an antibody conjugate.
Specific reaction conditions: The antibody concentration was controlled to be about 2.5 mg/mL. […] The small molecule was dissolved in DMSO, and the final concentration of DMSO was controlled to be not greater than 10%. After pre-cooling on ice, tyrosinase (final concentration: 1 mg/mL) was added. The reaction pH was controlled to be about 5.5. The reaction was performed at 4° C. for 16 h. The final reaction mixture was stored at −40° C. for later analysis.
RP-HPLC analysis was performed on the conjugate sample using conventional high performance liquid chromatography to determine how the HC/LC containing the corresponding mutation site(s) reacted. […] Ultraviolet absorption was measured at 280 nm.
The reaction mixture of conjugation was diluted to 1 mg/mL, and formic acid (final concentration: 0.1%) was added to enhance the protonation of the sample. The sample was analyzed using a ThermoFisher QE plus mass spectrometer. […] After the sampling was completed, mass spectrometry data of the target peak were calculated using BioPharma Finder software. […]

B1: c-met L15 (antibody)
heavy: QVQLVESGGGVVQPGRSLRLSCAASGFSLSNYGVHWVRQAPGKGLEWLAVIWSGGSTNYAAAFVSRLTISKDNSKNTVYLQMNSLRAEDTAVYYCARNHDNPYNYAMDYWGQGTTVTVSS[no letters for human IgG1 constant region]
light: DIVLTQSPDSLAVSLGERATINCRADKSVSTSTYNYLHWYQQKPGQPPKLLIYLASNLASGVPDRFSGSGSGTDFTLTISSLQAEDVAVYYCQHSRDLPPTFGQGTKLEIKRTVAAPSVFIFPPSDEQLKSGTASVVCLLNNFYPREAKVQWKVDNALQSGNSQESVTEQDSKDSTYSLSSTLTLSKADYEKHKVYACEVTHQGLYSPVTKSFNRGEC
modifications: c-met L15 HC; c-met L15 LC
DAR value (calculated by MS) (VsTYR core, polypeptide P-1): 2.00

B2: 0102 L15: 0102 mutant S202Y in Cκ, HC SEQ ID NO: 12, LC SEQ ID NO: 20 (antibody)
heavy: EVQLVESGGGLVKPGGSLRLSCAASGFTFSTYAMSWVRQAPEKRLEWVATISDSDYYADNVKGRFTISRDNAKNSLYLQMNSLRAEDTAVYYCVRDDWDGDFDYWGQGTLVTVSS[no letters for human IgG1 constant region]
light: DVVMTQSPLSLPVTPGEPASISCKSTQSLLYSDGETYLNWLLQKPGQSPQRLIYLVSKLDSGVPDRFSGSGSGTDFTLKISRVEAEDVGVYYCWQGSHFPQTFGGGTKVEIKRTVAAPSVFIFPPSDEQLKSGTASVVCLLNNFYPREAKVQWKVDNALQSGNSQESVTEQDSKDSTYSLSSTLTLSKADYEKHKVYACEVTHQGLYSPVTKSFNRGEC
modifications: 0102 wt HC; 0102 L15 LC
DAR value (calculated by MS) (enzyme VsTYR core, compound L-2, calculated DAR for single-point mutants is 2): 2.00
